Results: PubChem BioAssay AID1768 (National Center for Advancing Translational Sciences (NCATS), 2009)
In all, about 270,000 compounds went through this assay and about 620 (0.23%) were called active. The inconclusive results got no clear call from the source; some entries with a clear call stand among them for comparison. Calls follow the shape of the dose curve; as a rule, active = well fitted inhibition curve with a large enough effect in the polarisation, with a control signal flat (not every such curve was filed as active); inconclusive = small, poorly fitted or top-dose-only effect, or effect the other way, or a change in a side signal; inactive = no such curve, though single readings can be large or run the other way; the % refers to the polarisation. A potency beside an inconclusive call is a rough fit, not a confirmed value. A note “side channel” means that the fit belongs to a control or component signal, not to the main read-out.

Biological target: Menin (Homo sapiens) (UniProt O00255)
Chain of UniProt O00255 (O00255 whole entry, looked up): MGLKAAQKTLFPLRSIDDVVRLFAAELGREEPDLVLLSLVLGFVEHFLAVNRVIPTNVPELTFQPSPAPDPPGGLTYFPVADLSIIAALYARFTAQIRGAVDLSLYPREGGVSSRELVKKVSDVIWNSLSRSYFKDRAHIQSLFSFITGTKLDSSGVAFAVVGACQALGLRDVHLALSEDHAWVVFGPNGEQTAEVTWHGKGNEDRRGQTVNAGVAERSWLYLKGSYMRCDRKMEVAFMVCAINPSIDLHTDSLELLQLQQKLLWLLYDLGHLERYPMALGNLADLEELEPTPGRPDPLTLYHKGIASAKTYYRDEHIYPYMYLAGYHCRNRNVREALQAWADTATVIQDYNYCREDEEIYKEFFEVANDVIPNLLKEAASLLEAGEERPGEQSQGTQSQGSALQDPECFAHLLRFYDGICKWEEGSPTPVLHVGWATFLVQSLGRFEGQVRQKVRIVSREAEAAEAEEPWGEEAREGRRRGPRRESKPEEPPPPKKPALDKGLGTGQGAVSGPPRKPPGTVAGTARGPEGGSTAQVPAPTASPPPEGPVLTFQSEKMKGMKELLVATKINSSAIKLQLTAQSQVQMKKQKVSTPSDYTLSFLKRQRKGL
Test: qHTS Assay for Inhibitors Targeting the Menin-MLL Interaction in MLL Related Leukemias: Competition With Texas Red Labeled MLL-derived Mutant Peptide; as to FP activity change, negative = inhibition: % of control where 0% means no effect
Conditions: fluorescence polarization; FP activity change, negative = inhibition: at 61.6 µM (top of the series)
Potency is read from the fitted curve at half-maximal effect; tags tell the direction and shape of the fitted curve or compound fluorescence and quenching.

Potency, inconclusive:
O=C(Nc1nccs1)c1cc2sccc2n1Cc1ccc(F)cc1 3.55 µM [quencher, side channel, partial curve], Oc1ccc(CNc2ccccc2O)cc1 17.8 µM [quencher, side channel, partial curve], COc1ccc(N2CCN(C(CNC(=O)C(=O)NCCc3c[nH]c4ccccc34)c3ccco3)CC2)cc1 (configuration not stated) 31.6 µM [quencher, side channel, partial curve], COCC(=O)O[C@]1(CCN(C)CCCc2nc3ccccc3[nH]2)CCc2cc(F)ccc2[C@@H]1C(C)C 15.8 µM [fluorescent, side channel, partial curve], COc1cccc(/C=N/NC(=O)c2nnn(-c3nonc3N)c2C(C)C)c1 14.1 µM [quencher, side channel, partial curve], O=C(NNc1c2ccccc2nc2ccccc12)c1ccc(O)cc1O 28.2 µM [quencher, partial curve], COc1ccc(C(=O)CCC(=O)Nc2cccnc2)cc1OC 7.08 µM [inhibitor, single point], CCCN(CCC)C(=O)c1oc2ccccc2c1NC(=O)Cc1cccc(OC)c1 14.1 µM [inhibitor, partial curve], O=C(CN1CCc2ccccc21)NC(=O)NCc1ccccc1 39.8 µM [inhibitor, single point], COc1ccc(OC(=O)CCc2c[nH]c3ccccc23)cc1 28.2 µM [quencher, side channel, single point], Cc1cc(NC(=O)c2cc(-c3ccccn3)nc3c(Cl)cccc23)no1 25.1 µM [quencher, side channel, single point], COc1cccc2cc(/C(C)=N/Nc3nc(-c4cc(C)ccc4C)cs3)c(=O)oc12 20 µM [quencher, side channel, partial curve], O=C(NN=C1CCCCCC1)c1cc2ccccc2cc1O 25.1 µM [quencher, side channel, single point], S=C(NCc1ccccc1)N1CCN(c2ccccc2)CC1 22.4 µM [quencher, side channel, single point], Nc1[nH]n(-c2ccccc2)c(=O)c1N=Nc1ccccc1[N+](=O)[O-] 14.1 µM [quencher, side channel, partial curve], CC(=O)N(c1ccc2oc(=O)sc2c1)S(=O)(=O)c1ccc(C)cc1 28.2 µM [quencher, side channel, partial curve], COc1cccc(C2C(C(=O)Nc3ccccc3)=C(C)N=c3s/c(=C/c4ccc(OCC(=O)O)cc4)c(=O)n32)c1 (configuration not stated) 10 µM [quencher, side channel, partial curve], COc1nccnc1NS(=O)(=O)c1ccc(N=Cc2c(C)[nH]n(-c3ccc(C)c(C)c3)c2=O)cc1 39.8 µM [quencher, side channel, single point], COc1ccc(Oc2ccc(/C=C/C(=O)c3ccc(O)cc3)cc2[N+](=O)[O-])cc1 39.8 µM [quencher, side channel, single point], O=C1/C(=C/c2ccc3c(c2)OCO3)Oc2cc(OCC(=O)N3CC(O)C[C@H]3C(=O)O)ccc21 (some centres not stated) 28.2 µM [quencher, side channel, single point], COc1ccc(OC)c(N(CC(=O)N2CCC(C)CC2)S(=O)(=O)c2ccc(OC)c(OC)c2)c1 2.82 µM [inhibitor, partial curve], CC(C)(C)S(=O)(=O)c1cnc2c(-c3ccc(F)cc3)cnn2c1N 12.6 µM [inhibitor, partial curve], CCC(C)(C)NC(=S)Nc1ccc(-c2nc3ccc(C)cc3s2)cc1 14.1 µM [quencher, side channel, partial curve], COc1cc(/C=C(\C#N)c2ccccn2)ccc1OCC(=O)Nc1c(Cl)cccc1Cl 31.6 µM [inhibitor, single point], O=C1S/C(=C\c2ccc(N3CCOCC3)o2)C(=O)N1Cc1c(F)cccc1Cl 39.8 µM [quencher, side channel, single point], Cc1cc(C)c2nc(NNC(=O)c3ccc(S(=O)(=O)N4CCc5ccccc5C4)cc3)sc2c1 3.98 µM [quencher, side channel, full curve, poor fit], Cc1csc(N/N=C/c2ccc(O)c([N+](=O)[O-])c2)n1 25.1 µM [quencher, side channel, partial curve], O=C1NC(=Nc2ccc(Cl)cc2)SC1Cc1cc(Cl)ccc1Cl (configuration not stated) 39.8 µM [inhibitor, single point], CN(C)S(=O)(=O)c1ccc(NC(=O)Cc2ccc(S(=O)(=O)N3CCOCC3)s2)cc1 35.5 µM [quencher, side channel, partial curve], COc1ccc2c(c1)CCCN2S(=O)(=O)c1ccc(Cl)cc1 5.01 µM [inhibitor, partial curve], CC1CN(C(=O)CCc2cc(C(C)(C)C)c(O)c(C(C)(C)C)c2)CC(C)O1 (configuration not stated) 10 µM [fluorescent, side channel, partial curve], CSc1nc(-c2ccccc2)ccc1C(N)=O 39.8 µM [inhibitor, single point], COC(CNC(=O)c1ccc(CS(=O)(=O)c2ccc(Br)cc2)o1)OC 3.55 µM [inhibitor, partial curve], O=C(O)c1ccc(NC(=O)c2cn(-c3ccccc3)nc2-c2ccccc2)cc1 25.1 µM [quencher, side channel, partial curve], C/C(=N\Nc1ccc(F)cc1F)c1ccc(F)cc1 35.5 µM [quencher, side channel, single point], COc1ccc2[nH]c(C(=O)c3ccccc3)cc2c1 39.8 µM [fluorescent, single point], COc1ccccc1CNC(=O)/C=C/c1ccc(Br)o1 22.4 µM [quencher, side channel, single point], O=C(Nc1ccc(S(=O)(=O)N2CCOCC2)cc1)c1ccc(Cl)cc1Cl 31.6 µM [quencher, side channel, single point], Cc1ccc(-n2[nH]c(C)c(/C=C3/C=Nc4ccccc43)c2=O)cc1C 11.2 µM [quencher, side channel, partial curve], COc1cc(OC)c(OC)cc1/C=C1\Oc2cc(OCC(=O)N3Cc4ccccc4C[C@H]3C(=O)O)ccc2C1=O 7.94 µM [quencher, side channel, partial curve], O=C(O)CCCNC(=O)/C(=C\c1ccccc1F)NC(=O)c1ccccc1 3.98 µM [inhibitor, full curve], CCCCN1C(=O)CCC(C(=O)O)C1c1ccc(OC)cc1 (configuration not stated) 20 µM [inhibitor, single point], N#CC(=C1SC=CS1)c1nc(-c2ccccc2)cs1 10 µM [quencher, side channel, partial curve], Cc1onc(-c2ccccc2)c1C(N)=O 20 µM [inhibitor, partial curve, poor fit], CC(C)CNC(=O)NC(=O)COC(=O)C1CSC2(c3ccc(F)cc3)CCC(=O)N12 (configuration not stated) 22.4 µM [fluorescent, side channel, partial curve], Cc1csc(NC(=O)c2ccc(S(=O)(=O)N(C)c3ccccc3)cc2)n1 25.1 µM [quencher, side channel, partial curve], O=C(COc1cccc(NC(=O)c2cccc([N+](=O)[O-])c2)c1)c1ccc(Br)cc1 3.16 µM [inhibitor, full curve], Cc1nc2c(-c3ccccc3)cnn2c(N)c1-c1ccccc1 12.6 µM [quencher, side channel, partial curve], O=C(O)c1c2c(nc3ccc(S(=O)(=O)N4CCC(C(=O)NCc5ccc(Cl)cc5)CC4)cc13)CCCC2 22.4 µM [quencher, side channel, partial curve], Cc1cc(C)c(C#N)c(SCS(=O)Cc2ccc(Cl)cc2)n1 (configuration not stated) 15.8 µM [fluorescent, side channel, partial curve]

FP activity change, negative = inhibition, inconclusive:
O=C(CCCOc1ccc(Cl)cc1Cl)N/N=C/c1cccc([N+](=O)[O-])c1 13.9% [phenotype inactive]

FP activity change, negative = inhibition, inactive:
O=C(c1ccc(Cn2c(=S)[nH]c3ccc(N4CCOCC4)cc3c2=O)cc1)N1CCN(c2ccc(F)cc2)CC1 9.75%, CCCC1=[N+](CC)CCn2c(C)ccc21 5.55%, CCOC(=O)C1(CC2CC2)CCN(Cc2ccc(OC)cc2F)CC1 30.2%, O=C1OCc2cccc3cccc1c23 0.485%, COc1cccc(CNC(=O)c2ccccc2N)c1 -28%, CCNS(=O)(=O)c1ccc2c3c(cccc13)C(=O)N2 1.76%
